Publication PMC3424240
Results are given in words; binding and its absence hold for the method and conditions named. In cells and extracts the contact can be indirect. Some results given as binding are weak or reduced against the parent protein; the word gives no strength. For some of these results: Where a sequence is shown, tags or fusion partners need not be part of it.

Sequences of proteins named here, by UniProt entry; tags and fusion partners are left off.
UniProt Q8CFT2: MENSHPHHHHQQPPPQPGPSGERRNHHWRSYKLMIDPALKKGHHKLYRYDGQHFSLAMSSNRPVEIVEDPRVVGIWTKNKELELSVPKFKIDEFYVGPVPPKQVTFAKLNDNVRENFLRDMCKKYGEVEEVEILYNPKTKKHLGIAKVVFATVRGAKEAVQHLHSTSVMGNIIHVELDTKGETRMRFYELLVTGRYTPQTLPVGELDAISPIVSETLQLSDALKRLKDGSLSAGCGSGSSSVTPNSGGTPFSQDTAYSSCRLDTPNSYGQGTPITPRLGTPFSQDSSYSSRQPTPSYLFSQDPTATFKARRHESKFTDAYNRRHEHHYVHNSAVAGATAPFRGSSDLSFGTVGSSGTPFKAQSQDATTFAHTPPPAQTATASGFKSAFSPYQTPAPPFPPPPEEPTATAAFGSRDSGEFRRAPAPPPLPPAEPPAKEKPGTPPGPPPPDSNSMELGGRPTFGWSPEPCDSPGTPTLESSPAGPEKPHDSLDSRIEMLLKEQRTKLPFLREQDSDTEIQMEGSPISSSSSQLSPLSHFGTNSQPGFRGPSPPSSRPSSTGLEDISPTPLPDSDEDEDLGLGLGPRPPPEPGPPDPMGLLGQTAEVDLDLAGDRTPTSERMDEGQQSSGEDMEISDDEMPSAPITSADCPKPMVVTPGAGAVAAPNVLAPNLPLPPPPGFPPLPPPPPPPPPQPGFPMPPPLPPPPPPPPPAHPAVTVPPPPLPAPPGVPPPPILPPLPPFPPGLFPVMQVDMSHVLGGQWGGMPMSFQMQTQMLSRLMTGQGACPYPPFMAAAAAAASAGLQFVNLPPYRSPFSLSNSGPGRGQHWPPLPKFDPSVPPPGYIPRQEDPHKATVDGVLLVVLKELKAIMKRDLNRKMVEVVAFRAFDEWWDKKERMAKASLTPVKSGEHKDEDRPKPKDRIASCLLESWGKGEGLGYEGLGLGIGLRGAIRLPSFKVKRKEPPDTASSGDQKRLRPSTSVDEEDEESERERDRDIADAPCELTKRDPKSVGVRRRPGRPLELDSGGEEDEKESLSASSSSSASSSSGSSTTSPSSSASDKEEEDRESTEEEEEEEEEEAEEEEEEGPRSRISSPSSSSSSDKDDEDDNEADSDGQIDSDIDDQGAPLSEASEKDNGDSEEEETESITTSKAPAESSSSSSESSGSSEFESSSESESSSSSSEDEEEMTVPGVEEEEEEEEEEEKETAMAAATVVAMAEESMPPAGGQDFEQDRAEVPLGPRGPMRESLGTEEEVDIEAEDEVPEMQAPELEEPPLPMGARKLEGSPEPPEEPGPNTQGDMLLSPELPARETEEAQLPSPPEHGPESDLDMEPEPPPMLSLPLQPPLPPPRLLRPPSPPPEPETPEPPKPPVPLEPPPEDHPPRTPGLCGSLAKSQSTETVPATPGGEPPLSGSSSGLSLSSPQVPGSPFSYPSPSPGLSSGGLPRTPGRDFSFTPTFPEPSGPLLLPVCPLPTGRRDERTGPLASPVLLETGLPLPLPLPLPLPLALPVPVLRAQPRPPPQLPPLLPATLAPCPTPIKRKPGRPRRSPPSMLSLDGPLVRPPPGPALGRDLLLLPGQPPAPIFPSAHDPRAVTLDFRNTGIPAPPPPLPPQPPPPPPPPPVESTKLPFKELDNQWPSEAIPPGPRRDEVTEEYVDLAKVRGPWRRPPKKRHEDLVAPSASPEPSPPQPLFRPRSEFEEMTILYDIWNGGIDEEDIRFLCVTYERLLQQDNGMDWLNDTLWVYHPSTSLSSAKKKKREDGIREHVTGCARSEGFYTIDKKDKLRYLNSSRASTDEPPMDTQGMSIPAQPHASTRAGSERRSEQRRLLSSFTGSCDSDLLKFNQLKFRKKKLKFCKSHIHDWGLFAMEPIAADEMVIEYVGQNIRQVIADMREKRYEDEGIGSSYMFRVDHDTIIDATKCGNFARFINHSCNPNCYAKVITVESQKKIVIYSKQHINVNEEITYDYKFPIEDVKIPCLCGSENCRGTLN

T1: Rbm15 of murine 6133 megakaryoblastic leukemic cells (mouse (endogenous in 6133)) (UniProt Q0VBL3)
T1 sequence: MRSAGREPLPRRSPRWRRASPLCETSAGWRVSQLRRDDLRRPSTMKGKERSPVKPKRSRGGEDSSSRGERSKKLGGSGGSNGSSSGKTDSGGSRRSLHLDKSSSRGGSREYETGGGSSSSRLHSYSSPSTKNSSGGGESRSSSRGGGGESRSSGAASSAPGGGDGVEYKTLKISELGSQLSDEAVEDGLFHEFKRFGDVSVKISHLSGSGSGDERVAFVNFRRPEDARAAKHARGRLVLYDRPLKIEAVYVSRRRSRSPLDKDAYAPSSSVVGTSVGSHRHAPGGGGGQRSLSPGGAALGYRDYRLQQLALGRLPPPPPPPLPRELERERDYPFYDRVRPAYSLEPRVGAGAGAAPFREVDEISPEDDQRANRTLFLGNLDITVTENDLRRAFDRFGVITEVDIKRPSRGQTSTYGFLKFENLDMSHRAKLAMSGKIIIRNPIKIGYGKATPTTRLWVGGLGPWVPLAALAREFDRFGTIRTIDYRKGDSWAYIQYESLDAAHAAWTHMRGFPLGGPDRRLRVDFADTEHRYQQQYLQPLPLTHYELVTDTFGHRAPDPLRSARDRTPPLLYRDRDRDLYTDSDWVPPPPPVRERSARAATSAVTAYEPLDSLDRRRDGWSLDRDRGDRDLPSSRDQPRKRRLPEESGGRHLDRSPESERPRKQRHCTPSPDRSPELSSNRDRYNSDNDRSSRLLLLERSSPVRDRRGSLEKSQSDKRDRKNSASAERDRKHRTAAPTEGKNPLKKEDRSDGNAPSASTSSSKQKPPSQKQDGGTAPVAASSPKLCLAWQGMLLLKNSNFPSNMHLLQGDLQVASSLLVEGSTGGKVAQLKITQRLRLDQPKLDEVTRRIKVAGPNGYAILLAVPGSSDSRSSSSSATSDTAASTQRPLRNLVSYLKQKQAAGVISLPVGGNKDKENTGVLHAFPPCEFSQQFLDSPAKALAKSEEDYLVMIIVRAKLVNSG

T2: FLAG-Setd1b fragment (1–867 aa) (human) (UniProt Q9UPS6)
T2 sequence: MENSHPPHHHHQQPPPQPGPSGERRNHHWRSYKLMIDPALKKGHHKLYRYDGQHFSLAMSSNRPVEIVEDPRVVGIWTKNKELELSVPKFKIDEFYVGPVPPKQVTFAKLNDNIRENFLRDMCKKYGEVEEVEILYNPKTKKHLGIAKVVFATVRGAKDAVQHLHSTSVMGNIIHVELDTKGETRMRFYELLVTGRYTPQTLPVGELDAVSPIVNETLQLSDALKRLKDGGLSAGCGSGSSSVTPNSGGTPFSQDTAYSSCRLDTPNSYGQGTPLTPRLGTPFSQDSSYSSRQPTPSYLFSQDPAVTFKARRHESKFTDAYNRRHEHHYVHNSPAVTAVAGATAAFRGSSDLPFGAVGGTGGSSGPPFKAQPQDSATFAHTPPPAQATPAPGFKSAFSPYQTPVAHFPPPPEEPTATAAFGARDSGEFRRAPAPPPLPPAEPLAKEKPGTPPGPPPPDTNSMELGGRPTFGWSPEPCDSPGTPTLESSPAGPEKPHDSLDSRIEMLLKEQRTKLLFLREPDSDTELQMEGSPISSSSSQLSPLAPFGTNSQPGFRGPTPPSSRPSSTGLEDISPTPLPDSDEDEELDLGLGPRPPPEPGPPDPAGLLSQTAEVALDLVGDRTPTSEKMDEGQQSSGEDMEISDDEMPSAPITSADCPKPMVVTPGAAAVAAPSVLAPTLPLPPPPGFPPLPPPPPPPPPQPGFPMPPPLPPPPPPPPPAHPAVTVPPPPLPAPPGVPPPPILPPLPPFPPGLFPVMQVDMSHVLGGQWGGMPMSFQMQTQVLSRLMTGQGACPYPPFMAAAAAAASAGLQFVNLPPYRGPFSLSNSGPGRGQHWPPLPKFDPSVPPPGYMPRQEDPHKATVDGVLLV

T3: FLAG-tagged Setd1b 225 to 826 aa region (human) (UniProt Q9UPS6)
T3 sequence: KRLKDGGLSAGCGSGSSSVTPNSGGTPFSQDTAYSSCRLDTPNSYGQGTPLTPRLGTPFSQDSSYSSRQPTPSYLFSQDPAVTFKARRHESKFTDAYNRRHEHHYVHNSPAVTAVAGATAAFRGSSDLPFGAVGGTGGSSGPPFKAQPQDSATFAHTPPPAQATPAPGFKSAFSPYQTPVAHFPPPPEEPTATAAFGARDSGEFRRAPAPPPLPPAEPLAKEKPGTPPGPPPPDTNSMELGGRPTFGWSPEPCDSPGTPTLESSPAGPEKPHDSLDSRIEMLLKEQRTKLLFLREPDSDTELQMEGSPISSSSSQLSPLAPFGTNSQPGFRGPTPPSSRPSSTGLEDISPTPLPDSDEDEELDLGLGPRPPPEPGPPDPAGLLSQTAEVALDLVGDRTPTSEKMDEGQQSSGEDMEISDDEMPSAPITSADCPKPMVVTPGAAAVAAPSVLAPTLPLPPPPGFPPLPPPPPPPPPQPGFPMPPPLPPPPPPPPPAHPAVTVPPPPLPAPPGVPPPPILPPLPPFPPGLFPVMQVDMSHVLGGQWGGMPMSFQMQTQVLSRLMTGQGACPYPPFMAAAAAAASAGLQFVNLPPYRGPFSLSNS

T4: FLAG-Setd1b (aa 225–1671) (human) (UniProt Q9UPS6)
T4 sequence: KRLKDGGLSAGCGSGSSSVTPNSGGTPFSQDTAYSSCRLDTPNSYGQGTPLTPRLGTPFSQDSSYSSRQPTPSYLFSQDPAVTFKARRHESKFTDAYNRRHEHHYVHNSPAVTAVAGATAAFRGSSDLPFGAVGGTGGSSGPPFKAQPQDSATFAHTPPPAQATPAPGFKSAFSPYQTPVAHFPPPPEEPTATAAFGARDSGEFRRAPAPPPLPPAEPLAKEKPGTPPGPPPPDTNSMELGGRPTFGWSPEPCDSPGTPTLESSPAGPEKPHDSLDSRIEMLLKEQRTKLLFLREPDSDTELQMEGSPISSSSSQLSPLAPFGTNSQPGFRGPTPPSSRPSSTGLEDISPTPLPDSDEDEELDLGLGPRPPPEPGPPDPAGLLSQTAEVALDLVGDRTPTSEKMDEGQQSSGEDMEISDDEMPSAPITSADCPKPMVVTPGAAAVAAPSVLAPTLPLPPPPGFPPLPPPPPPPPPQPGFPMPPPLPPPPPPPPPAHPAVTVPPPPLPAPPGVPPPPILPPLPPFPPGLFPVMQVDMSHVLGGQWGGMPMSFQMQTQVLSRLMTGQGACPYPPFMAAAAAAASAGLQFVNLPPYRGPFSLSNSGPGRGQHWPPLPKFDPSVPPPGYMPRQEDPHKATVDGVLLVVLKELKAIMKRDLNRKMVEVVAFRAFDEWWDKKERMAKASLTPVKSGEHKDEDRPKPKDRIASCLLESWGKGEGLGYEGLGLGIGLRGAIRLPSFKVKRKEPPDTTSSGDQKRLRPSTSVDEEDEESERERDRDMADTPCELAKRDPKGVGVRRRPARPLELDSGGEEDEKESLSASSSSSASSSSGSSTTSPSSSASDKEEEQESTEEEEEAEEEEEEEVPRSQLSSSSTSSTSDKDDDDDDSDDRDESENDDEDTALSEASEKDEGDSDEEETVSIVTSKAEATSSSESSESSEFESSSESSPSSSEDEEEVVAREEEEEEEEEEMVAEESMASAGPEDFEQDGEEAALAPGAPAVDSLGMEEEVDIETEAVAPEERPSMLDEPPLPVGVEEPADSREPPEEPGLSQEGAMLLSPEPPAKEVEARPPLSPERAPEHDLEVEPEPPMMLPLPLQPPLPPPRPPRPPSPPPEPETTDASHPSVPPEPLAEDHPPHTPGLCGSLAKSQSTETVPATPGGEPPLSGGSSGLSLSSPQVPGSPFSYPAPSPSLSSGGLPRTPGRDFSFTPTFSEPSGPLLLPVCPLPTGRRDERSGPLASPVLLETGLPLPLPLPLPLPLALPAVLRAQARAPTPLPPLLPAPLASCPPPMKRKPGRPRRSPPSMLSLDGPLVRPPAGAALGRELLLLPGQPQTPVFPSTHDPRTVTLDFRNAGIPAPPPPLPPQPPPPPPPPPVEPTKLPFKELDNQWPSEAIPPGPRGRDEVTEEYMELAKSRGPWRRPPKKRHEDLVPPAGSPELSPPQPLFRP


Columns and labels:
[1] = molecular target: Setd1b of murine 6133 megakaryoblastic leukemic cells (mouse (endogenous in 6133)) (UniProt Q8CFT2); assay: co-IP; immunoprecipitation with antisera against Setd1b or Rbm15 from whole cell extracts of murine 6133 megakaryoblastic leukemic cells, Western blotting
[2] = molecular target: T1, Rbm15 of murine 6133 megakaryoblastic leukemic cells (mouse (endogenous in 6133)); assay: as above
[3] = molecular target: T2, FLAG-Setd1b fragment (1–867 aa) (human); assay: co-IP; FLAG immunoprecipitation from whole cell extracts of transiently transfected HEK293 cells, Western blotting for endogenous partners
[4] = molecular target: endogenous Setd1b (human (endogenous in HEK293)) (UniProt Q9UPS6); assay: co-IP; immunoprecipitation with antisera against Setd1b or Rbm15 from nuclear extracts of HEK293 cells (endogenous proteins), Western blotting
[5] = molecular target: T3, FLAG-tagged Setd1b 225 to 826 aa region (human); assay: co-IP; FLAG immunoprecipitation (FLAG-IgG agarose) from nuclear extracts of inducible T-REx HEK293 stable lines, Western blotting for endogenous partners
[6] = molecular target: T4, FLAG-Setd1b (aa 225–1671) (human); assay: co-IP; FLAG immunoprecipitation from nuclear extracts of transiently transfected HEK293 cells, Western blotting for endogenous partners
[7] = molecular target: FLAG-tagged full-length Setd1b (human) (UniProt Q9UPS6); assay: as above

binding [1]	binding [2]	binding [3]	binding [4]	binding [5]	binding [6]	binding [7]	Binder
no binding	no binding	–	–	–	–	–	Mkl1 of murine 6133 megakaryoblastic leukemic cells (protein, UniProt Q8K4J6 1-964) MTLLEPEMLMMAVQSVLQLKLQQRRTREELVSQGIMPPLKSPAAFHEQRRSLERARTEDYLKRKIRSRPERAELVRMHILEETSAEPSLQAKQLKLKRARLADDLNEKIAQRPGPMELVEKNILPVESSLKEAIIVGQVNYPKVADSSSFDEDSSDALSPEQPASHESQGSVPSPLESRVSDPLPSATSISPTQVLSQLPMAPDPGETLFLAEQPPLPPAPLLPPSLANGSIVPTAKPAPTLIKQSQPKSASEKSQRSKKAKELKPKVKKLKYHQYIPPDQKQDKGAPAMDSSYAKILQQQQLFLQLQILNQQQQQQQQQHYNYQAILPAPPKPSAETPGSSAPTPSRSLSTSSSPSSGTPGPSGLARQSSTALAAKPGALPANLDDMKVAELKQELKLRSLPVSGTKTELIERLRAYQDQVSPAPGAPKAPATTSVLSKAGEVVVAFPAALLSTGSALVTAGLAPAEMVVATVTSNGMVKFGSTGSTPPVSPTPSERSLLSTGDENSTPGDAFGEMVTSPLTQLTLQASPLQIVKEEGARAASCCLSPGARAELEGLDKDQMLQEKDKQIEELTRMLQQKQQLVELLRLQLEQQKRAQQPAPASSPVKRESGFSSCQLSCQPQGSAHAFGSGLVVPTTNHGDTQAPAPESPPVVVKQEAGPPEPDLAPSSQLLLGSQGTSFLKRVSPPTLVTDSTGTHLILTVTNKSADGPGLPAGSPQQPLSQPGSPAPGPPAQMDLEHPPQPPFATPTSLLKKEPPGYEETVTQQPKQQENGSSSQHMDDLFDILIQSGEISADFKEPPSLPGKEKSPPAAAAYGPPLTPQPSPLSELPQAAPPPGSPTLPGRLEDFLESSTGLPLLTSGHEGPEPLSLIDDLHSQMLSSSAILDHPPSPMDTSELHFAPEPSSGMGLDLAVGHLDSMDWLELSSGGPVLSLAPLSTAAPSLFSMDFLDGHDLQLHWDSCL
–	–	binds	binds	binds	binds	binds	endogenous Rbm15 (protein, UniProt Q96T37 1-977) MRTAGRDPVPRRSPRWRRAVPLCETSAGRRVTQLRGDDLRRPATMKGKERSPVKAKRSRGGEDSTSRGERSKKLGGSGGSNGSSSGKTDSGGGSRRSLHLDKSSSRGGSREYDTGGGSSSSRLHSYSSPSTKNSSGGGESRSSSRGGGGESRSSGAASSAPGGGDGAEYKTLKISELGSQLSDEAVEDGLFHEFKRFGDVSVKISHLSGSGSGDERVAFVNFRRPEDARAAKHARGRLVLYDRPLKIEAVYVSRRRSRSPLDKDTYPPSASVVGASVGGHRHPPGGGGGQRSLSPGGAALGYRDYRLQQLALGRLPPPPPPPLPRDLERERDYPFYERVRPAYSLEPRVGAGAGAAPFREVDEISPEDDQRANRTLFLGNLDITVTESDLRRAFDRFGVITEVDIKRPSRGQTSTYGFLKFENLDMSHRAKLAMSGKIIIRNPIKIGYGKATPTTRLWVGGLGPWVPLAALAREFDRFGTIRTIDYRKGDSWAYIQYESLDAAHAAWTHMRGFPLGGPDRRLRVDFADTEHRYQQQYLQPLPLTHYELVTDAFGHRAPDPLRGARDRTPPLLYRDRDRDLYPDSDWVPPPPPVRERSTRTAATSVPAYEPLDSLDRRRDGWSLDRDRGDRDLPSSRDQPRKRRLPEESGGRHLDRSPESDRPRKRHCAPSPDRSPELSSSRDRYNSDNDRSSRLLLERPSPIRDRRGSLEKSQGDKRDRKNSASAERDRKHRTTAPTEGKSPLKKEDRSDGSAPSTSTASSKLKSPSQKQDGGTAPVASASPKLCLAWQGMLLLKNSNFPSNMHLLQGDLQVASSLLVEGSTGGKVAQLKITQRLRLDQPKLDEVTRRIKVAGPNGYAILLAVPGSSDSRSSSSSAASDTATSTQRPLRNLVSYLKQKQAAGVISLPVGGNKDKENTGVLHAFPPCEFSQQFLDSPAKALAKSEEDYLVMIIVRGFGFQIGVRYENKKRENLALTLL
